Experimental data reported in the supplement of paper PMC8674133.
Recombinant human monoclonal antibodies (heavy:light variable regions). ELISA EC50 on the named antigen, from 10 µg/ml down; IC50 / IC90 against spike pseudovirus on 293T-ACE2 cells, 48 h; lower = stronger. Calls: IC50 above 1,000 ng/ml = non-neutralizing; EC50 above 2,000 ng/ml = non-binder. The source prints 1000 for neutralization that was not reached; it is given as >1000 ng/ml. A few antibodies were first reported in earlier work of the same group.

B1: C2330 (protein)
chain 1: EVQLVESGAEVKKPGESLKISCKGSGYSFTSYWIGWVRQMPGKGLEWMGIIYPGDSDTRYSPSFQGQVTISADKSISTAYLQWSSLKASDTAMYYCAIAKYMYYDILTGYYKDGWSFDPWGQGTLVTVSS
chain 2: QSALTQPASVSGSPGQSITISCTGTSSDVGGYNYVSWYQQHPGKAPKLLIYDVNNRPSGVSNRFSGSKSGNTASLTISGLQAEDEADYYCSSYTSSSTLGVFGGGTKLTVL
B2: C2314 (protein)
chain 1: EVQLVESGGGLVQPGRSLRLSCAASGFTFDDYAMHWVRQAPGKGLEWISGISWNSGSIGYADSVKGRFTISRDNAKNSLYLQMNSLRAEDTALYYCAKAHVVTVMIKGPFWFDPWGQGTLVTVSS
chain 2: EIVMTQSPATLSVSPGERATLSCRASQSVNSNLAWYQQKPGQAPRLLIYGASTRATGIPARFSGSGSGTEFTLTISSLQSEDFAVYYCQQYNNWPPGITFGQGTRLEIK
B3: C2320 (protein)
chain 1: QVQLVQSGAEVKKPGASVKVSCKASGYTFISYYMHWVRQAPGQGLEWMGIINPSGGSTSYAQKLQGRVTMTTDTSTSTVYMELSSLRSEDTAVYYCARGPPPTVLTPFDFWGQGTLVTVSS
chain 2: EIVLTQSPATLSLSPGERATLSCRASQSVSSTLAWYQQKPGQAPRLLIYDASNRATGIPARFSGSGSGTDFTLTISSLEPEDFAVYYCQQRSNWPPGITFGGGTKVEIK
B4: C2317 (protein)
chain 1: QVQLVQSGAEVKKPGASVKVSCKASGYTFTSYFMHWVRQAPGQGLEWMGLINPSGGSTTYAQKFQGRVTMTRDTSTSTVYMELSSLRSEDTAVYYCARDFIEDGPNILTGFNWFDPWGQGTLVTVSS
chain 2: EIVMTQSPATLSVSPGERATLSCRASQSVSSNLAWYQQKPGQAPRLLIYGASTRATGIPARFSGSGSGTEFTLTISSLQSEDFAVYYCQHYNNWYTFGQGTKLEIK
B5: C2332 (protein)
chain 1: QLQLQESGPGLVKPSETLSLTCTVSGGSISSSDYYWGWIRQPPGKGLEWIGSIYYSGNTYYNPSLKSRVTISVDTSKKQFSLKLSSVTAADTAVYYCARHGGIYYYDSSGYFFDYWGQGTLVTVSS
chain 2: QSALTQPASVSGSPGQSITISCTGTSSDVGGYNYVSWYQQHPGKAPKLMIYEVSNRRSGVSSRFSGSKSGSTASLTISGLQAEDEADYYCSSYTSTNTLVFGGGTKLTVL
B6: C2315 (protein)
chain 1: VQLVESGGGVVQPGRSLRLSCAASGFTFSSYGMHWVRQAPGKGLEWVAVISYDGSNKYYADSVKGRFTISRDNSKNTLYLQMNSLRAEDTAVYYCAKAGGAYCGGDCPSSLDYWGQGTLVTVSS
chain 2: IRMTQSPSSLSASVGDRVTITCQASQDISNYLNWYQQKPGKAPKLLIYDASNLETGVPSRFSGSGSGTDFTFTISSLQPEDIATYYCQQYDNLPRTFGQGTKVEIK
B7: C2316 (protein)
chain 1: QVQLVESGGGVVQPGRSLRLSCAASGFTFSSYGMHWVRQAPGKGLEWVAIVWHDGSNKYYADSVQGRFTISRDNSKNTLHLQMNSLRAEDTAVYYCARGDSSGWFPLGMDVWGQGTTVTVSS
chain 2: EIVLTQSPGTLSLSPGERATLSCRASQSVSSNYLAWYQQKPGQAPRLLIYGTSNRATGIPDRFSGSGSGTDFTLTVSRLEPEDFVVYYCQQYGSSPPYTFGQGTKLEIK
B8: C2321 (protein)
chain 1: EVQLVQSGAEVKKPGESLKISCKASGYSFTTYWIGWVRQMSGKGLEWMGIIYPGDSDTKYSPSFHGQVTISADKSISTAYLQWSSLKASDTAMYFCARRTSYYDSGGFYYLDYWGQGTLVTVSS
chain 2: DIQLTQSPSSLSASVGDRVTITCRASQSISSYLNWYQQKPGKAPKVLIYAESTLQSGVPSRFSGSGSGTDFTLTISSLQPEDFATYYCQQSYSTLALTFGGGTKVEIK

molecular target: SARS-CoV-2 Wuhan-Hu-1 spike pseudovirus; experiment: pseudovirus neutralization IC50; higher = weaker neutralization
Method: (§1)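 Single-round luciferase reporter pseudovirus mixed with antibody dilutions and put on 293T-ACE2 cells for 48 h; signal relative to no-antibody wells, four-parameter fit.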

Row | Binder | pseudovirus neutralization IC50
1 | B1 | > 1000 ng/mL
2 | B2 | > 1000 ng/mL
3 | B3 | > 1000 ng/mL
4 | B4 | 860 ng/mL
5 | B5 | 238 ng/mL
6 | B6 | > 1000 ng/mL
7 | B7 | 410 ng/mL
8 | B8 | 343 ng/mL

molecular target: SARS-CoV-2 Wuhan-Hu-1 spike pseudovirus; experiment: pseudovirus neutralization IC90; higher = weaker neutralization
Method: as §1

Row | Binder | pseudovirus neutralization IC90
9 | B1 | > 1000 ng/mL
10 | B2 | > 1000 ng/mL
11 | B3 | > 1000 ng/mL
12 | B4 | > 1000 ng/mL
13 | B5 | > 1000 ng/mL
14 | B6 | > 1000 ng/mL
15 | B7 | > 1000 ng/mL
16 | B8 | > 1000 ng/mL

molecular target: SARS-CoV-2 Wuhan-Hu-1 spike receptor-binding domain; experiment: ELISA binding EC50; higher = weaker binding; ELISA of recombinant human antibody on coated antigen, from 10 µg/ml in fourfold dilutions; four-parameter fit.

Row | Binder | ELISA binding EC50
17 | B1 | 6.61 ng/mL
18 | B2 | 3.71 ng/mL
19 | B3 | 2.72 ng/mL
20 | B4 | 9.21 ng/mL
21 | B5 | 2.49 ng/mL
22 | B6 | 3.64 ng/mL
23 | B7 | 12 ng/mL
24 | B8 | 1.96 ng/mL
